From PubChem BioAssay (NCATS) come the findings set out here.

This experiment in a line: qHTS Assay for Lipid Storage Modulators (AID 1519). To be noted: Drosophila S3 cells, BODIPY lipid droplet/cell ratio, laser cytometry, cells loaded with oleic acid. The method, boiled down:
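Cells seeded at 5,000 per well were treated with compounds over a concentration series and loaded with oleic acid (400 uM, as added). Lipid droplet fluorescence (488 nm excitation, 500-530 nm channel) was read by laser-scanning cytometry and normalized to 20 uM Triacsin C.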
On the technique in general: Quantitative high-throughput screening tests each substance at several concentrations.

Setting [1] is: measured here: cell count channel max response.
The mark [2] stands for this setting: measured here: cell number channel AC50.
[3] abbreviates: measured here: lipid (BODIPY) channel AC50.
Where [4] appears, read: measured here: lipid channel max response.

By AC50 is commonly meant the concentration at which the activity in the assay is half-maximal.

The list shows a part of the results. Shown are side measurements of this screen, not its main read-out; they come without a call. Most of these compounds were active or inconclusive in the main read-out, so they are no random draw. Words in brackets tell the shape of the fitted curve; partial curves, single points and poor fits give uncertain potencies.
Tags tell the direction and shape of the fitted curve.

On to `COc1cccc2c1C(=O)c1c(O)c3c(c(O)c1C2=O)C[C@](O)(C(C)=O)C[C@H]3O[C@@H]1C[C@H](N)[C@H](O)[C@H](C)O1`, for which the max response reads like this: under setting [1], -65.9%; under setting [4], -86%. The AC50 was 11.2 µM [falling, partial curve] under setting [2] and 4.47 µM [falling, partial curve] under setting [3].

Turning to `COc1ccc(C2CNC(=O)C2)cc1OC1CCCC1` (configuration not stated), the max response is, setting by setting: under setting [1], 70.4%; under setting [4], 71.7%. Besides, the concentration at half-maximal activity (AC50) reads like this: under setting [2], 39.8 µM [rising, partial curve, poor fit]; under setting [3], 39.8 µM [rising, partial curve, poor fit].

With `O=c1c(-c2cc(F)cc(F)c2)nc2cncnc2n1C1CC1`, the max response by setting is: under setting [1], 41.6%; under setting [4], 49.2%. In addition, the half-maximal activity concentration (AC50) is 15.8 µM [rising, partial curve] under setting [2] and 12.6 µM [rising, partial curve] under setting [3].

With `CC(C)=CCC/C(C)=C/COc1c2occc2cc2ccc(=O)oc12`, the max response under setting [1] turned out to be 88% and the max response under setting [4] was 119%. The AC50 reads like this: under setting [2], 1.58 µM [rising, full curve]; under setting [3], 1.41 µM [rising, full curve].

Take `COc1cccc(Cn2c(=O)c(-c3cc(F)cc(F)c3)nc3cnc(OC)nc32)c1`: the max response by setting is: under setting [1], 15.6%; under setting [4], 17%. In addition, the AC50 is 1.58 µM [rising, partial curve, poor fit] under setting [2] and 0.891 µM [rising, partial curve] under setting [3].

With `COc1cccc(Nc2ncc3nc(-c4cccs4)c(=O)n(-c4ccccc4)c3n2)c1`, the max response under setting [1] amounted to 41.2% and the max response under setting [4] was -96%. The half-maximal activity concentration (AC50) by setting is: under setting [2], 1.26 µM [rising, partial curve, poor fit]; under setting [3], 22.4 µM [falling, single point].

Consider `Cn1c(=O)c(-c2cc(F)cc(F)c2)nc2cncnc21`, for which the max response runs as follows: under setting [1], 32.2%; under setting [4], 38.5%. Further, the half-maximal activity concentration (AC50) was 4.47 µM [rising, full curve, poor fit] under setting [2] and 3.16 µM [rising, full curve] under setting [3].

With `Cc1ccc(C(=O)[C@@H]2[C@H]3C4COC(O4)C(=O)[C@@H]3[C@H]3C=Cc4ccccc4N32)cc1` (some centres not stated), the max response under setting [1] is 73.5% and the max response under setting [4] was 95.7%. In addition, the half-maximal activity concentration (AC50) by setting is: under setting [2], 12.6 µM [rising, partial curve]; under setting [3], 14.1 µM [rising, partial curve].

As for `CNc1nc(-c2c(C)noc2C)nc2ccccc12`, the max response is, setting by setting: under setting [1], 0.604%; under setting [4], -7.21%. In addition, the half-maximal activity concentration (AC50) under setting [2] is 0.2 µM [rising, partial curve] and the AC50 under setting [3] is 0.141 µM [rising, partial curve].

Regarding `Nc1ncnc2c1ncn2C1CC(O)C(CO)O1` (configuration not stated), the max response is, setting by setting: under setting [1], -47.2%; under setting [4], -64.5%. Further, the AC50 under setting [2] is 25.1 µM [falling, partial curve, poor fit] and the concentration at half-maximal activity (AC50) under setting [3] was 28.2 µM [falling, partial curve, poor fit].

`CCNc1ncc2nc(-c3cn(C)c4ccccc34)c(=O)n(Cc3ccc(F)cc3)c2n1`: the max response worked out at 29.5% under setting [1] and 35.9% under setting [4]. For the same compound, the AC50 is, setting by setting: under setting [2], 0.355 µM [rising, full curve, poor fit]; under setting [3], 0.891 µM [rising, full curve, poor fit].

Consider `CNc1cc(OC)c(C(=O)N[C@@H]2CCN(Cc3ccccc3)[C@H]2C)cc1Cl`, for which the max response under setting [1] stood at 108% and the max response under setting [4] came out at 138%. The concentration at half-maximal activity (AC50) reads like this: under setting [2], 7.08 µM [rising, full curve]; under setting [3], 7.94 µM [rising, full curve].

For `CCOC(=O)C1=C(C)NC(C)=C(C(=O)OC)[C@H]1c1cccc([N+](=O)[O-])c1`, the max response is, setting by setting: under setting [1], 86.4%; under setting [4], 119%. Also, the AC50 was 2.82 µM [rising, full curve] under setting [2] and 3.16 µM [rising, full curve] under setting [3].

Turning to `COc1ccccc1CCn1c(=O)c(CCc2ccccc2)nc2cncnc21`, the max response runs as follows: under setting [1], 48.3%; under setting [4], 57.8%. Also, the AC50 runs as follows: under setting [2], 0.891 µM [rising, full curve]; under setting [3], 0.708 µM [rising, full curve].

Consider `COc1cccc(-c2nc(NC3CC3)c3ccccc3n2)c1`, for which the max response stood at 12% under setting [1] and 14.3% under setting [4]. Also, the AC50 was 0.0447 µM [rising, full curve] under setting [2] and 0.0708 µM [rising, full curve] under setting [3].

On to `O=C1c2ccccc2C(=O)c2c1ccc(O)c2O`, for which the max response stood at 99.6% under setting [1] and 129% under setting [4]. The AC50 by setting is: under setting [2], 25.1 µM [rising, partial curve]; under setting [3], 15.8 µM [rising, partial curve].

On to `CCn1ccnc1C[C@@H]1COc2ccccc2O1`, for which the max response is 39.6% under setting [1] and 49.1% under setting [4]. Further, the AC50 reads like this: under setting [2], 35.5 µM [rising, single point]; under setting [3], 35.5 µM [rising, single point].

Regarding `COc1ccc2cccc(N3CCN(CCNC(=O)c4ccc(F)cc4)CC3)c2c1`, the max response reads like this: under setting [1], 52.4%; under setting [4], 64.1%. Moreover, the AC50 under setting [2] was 5.01 µM [rising, full curve] and the AC50 under setting [3] is 5.62 µM [rising, full curve].
